Measured values taken from patent US20250059201A1, “CAMPTOTHECIN COMPOUND AND CONJUGATE THEREOF” (priority 2021, published 2025).
Read-outs that look alike come from different tables or passages of the source.

How the values were obtained:
Assay in all cases: Proliferation-inhibiting effect on tumor cells (SRB or MTT assay)
Format in all cases: cell-based, human
HT1376 = details: HT1376, 144 hours
Procedure: (§1) For cells growing by adherence, SRB assay was used to detect effect of antibody-drug conjugates or camptothecins on the proliferation of tumor cells in vitro cultured. A certain number of cells in exponential growth phase were inoculated in 96-well cell culture plates, and when the cells grew by adherence overnight, antibody drug conjugates or camptothecins of different concentrations were added into the cells. 144 hours later, the cells were fixed with trichloroacetic acid, and then stained with SRB (prepared in 1% glacial acetic acid at a concentration of 4 mg/mL). 10 mM Tris solution was added into each well to solubilize the bound SRB. OD values at 510 nm were read on a microplate reader.
(§2) Inhibition (%)=([…] of control well−OD value of dosed well)/OD value of control well×100%
(§3) For cells growing in suspension, MTT assay was used to detect effect of antibody-drug conjugates or camptothecins on the proliferation of tumor cells in vitro cultured. A certain number of cells in exponential growth phase were inoculated in 96-well cell culture plates, and when the cells grew in suspension overnight, antibody-drug conjugates or camptothecins of different concentrations were added into the cells. 144 hours later, MTT was added to each well of the plates, and the incubation was continued for 4 hours at 37° C. in a 5% CO2 saturated humidity incubator. Next, 100 μL of SDS-isobutanol-HCl solution was added into each well of the plates, and OD values at 570 nm and 690 nm were read on a microplate reader.
(§4) Half maximal inhibitory concentration (IC50) was calculated from the inhibition (%) at those different concentrations using the software Graphpad Prism 8.0. The experiment was repeated once and the data was expressed as mean±SD.

HT-29 = details: HT-29, 144 hours
Procedure: as §1, §2, §3, §4

Calu-3 = details: Calu-3, 144 hours
Procedure: as §1, §2, §3, §4

BxPC-3 = details: BxPC-3, 144 hours
Procedure: as §1, §2, §3, §4

[1] = read-out: IC50 (nM) 1st experiment
[2] = read-out: IC50 (nM) 2nd experiment

B1: Trop2-ADC-14 (conjugate)
heavy: QVQLVQSGAEVKKPGASVKVSCKASGYTFTSYWMHWVRQAPGQGLEWMGEITPSDNYGSYNQKFKGRVTITRDTSTSTAYMELSSLRSEDTAVYYCARGHGNYVSFDYWGQGTLVTVSSASTKGPSVFPLAPSSKSTSGGTAALGCLVKDYFPEPVTVSWNSGALTSGVHTFPAVLQSSGLYSLSSVVTVPSSSLGTQTYICNVNHKPSNTKVDKRV[not shown - human IgG1 Fc]
light: DIQMTQSPSSLSASVGDRVTITCRASQDISNYLNWYQQKPGKAPKLLIYYTSRLESGVPSRFSGSGSGTDFTLTISSLQPEDFATYFCQQGYTLPPYTFGQGTKLEIKRTVAAPSVFIFPPSDEQLKSGTASVVCLLNNFYPREAKVQWKVDNALQSGNSQESVTEQDSKDSTYSLSSTLTLSKADYEKHKVYACEVTHQGLSSPVTKSFNRGEC
**Q.** Which IC50 (HT1376; [1]) does the source give for B1 here?
**A.** The IC50 was 0.24 nM.

**Q.** What about the IC50 (HT1376; [2]) of the same molecule?
**A.** The IC50 was 0.2 nM.

**Q.** What about the IC50 (HT1376; read-out: IC50 (nM) Mean ± SD) of the same molecule?
**A.** The IC50 was 0.22 ± 0.03 nM.

**Q.** And the IC50 (HT-29; [1])?
**A.** The IC50 was over 654 nM.

**Q.** And the IC50 (HT-29; [2])?
**A.** Its IC50 is over 654 nM.

**Q.** What about the IC50 (HT-29; read-out: IC50 (nM) Mean ± SD) of the same molecule?
**A.** The IC50 was over 654 nM.

**Q.** What about the IC50 (Calu-3; [1]) of the same molecule?
**A.** Its IC50 is 3.2 nM.

**Q.** What about the IC50 (Calu-3; [2]) of the same molecule?
**A.** Its IC50 is 3.5 nM.

**Q.** And the IC50 (Calu-3; read-out: IC50 (nM) Mean ± SD)?
**A.** The IC50 was 3.35 ± 0.21 nM.

**Q.** And the IC50 (BxPC-3; [1])?
**A.** Its IC50 is 0.09 nM.

**Q.** What about the IC50 (BxPC-3; [2]) of the same molecule?
**A.** Its IC50 is 0.1 nM.

**Q.** And the IC50 (BxPC-3; read-out: IC50 (nM) Mean ± SD)?
**A.** Its IC50 is 0.09 ± 0.01 nM.
